Source: the antibiotic and cytotoxicity screens of Wong et al. (2023)
The other results are listed elsewhere or left out.

What follows are compounds tested on HSkMC (human skeletal muscle cells) (assay: cytotoxicity call (relative viability < 0.9)). Conditions: 10 µM.
In the case of `O=C(C[C@@H]1CC[C@H](NC(=O)Nc2ccc3c(c2)OCO3)[C@H](CO)O1)NCCCN1CCOCC1`, the cytotoxicity call is reported as “inactive”. `Clc1ccc(-c2cnc3ccc(-c4ccccc4)cn23)cc1` was tested, and the cytotoxicity call was “inactive”. `C[C@H]1CN([C@@H](C)CO)C(=O)Cc2cc(NC(=O)Nc3ccc(F)cc3)ccc2O[C@H]1CN(C)Cc1ccc(C(F)(F)F)cc1` was tested, and the cytotoxicity call was “active”. `CN(C)CC(=O)N[C@H]1C=C[C@H](CC(=O)NCCN2CCCCC2)O[C@H]1CO` was tested, and the cytotoxicity call was “inactive”. For `Cc1noc(C)c1NC(=O)Nc1ccc2c(c1)C(=O)N([C@H](C)CO)C[C@H](C)[C@@H](CN(C)CC1CC1)OCCCC[C@H](C)O2`, the cytotoxicity call was “inactive”. With `C[C@H]1CCCCO[C@@H](CN(C)C(=O)Cc2ccccc2)[C@@H](C)CN([C@@H](C)CO)C(=O)c2cc(NS(=O)(=O)c3ccc(Cl)cc3)ccc2O1` the cytotoxicity call was “inactive”. For `COc1cc2c(cc1OC)CN(C(=O)[C@@H]1[C@H]3C(=O)O[C@H](c4ccccc4)[C@H](c4ccccc4)N3[C@H](c3ccc(OCCO)cc3)[C@@]13C(=O)Nc1ccc(C#CC4(O)CCCCCC4)cc13)CC2`, the cytotoxicity call was “inactive”. In the case of `S=c1[nH]c2ccccc2s1`, the cytotoxicity call is reported as “inactive”. With `COc1ccccc1CN1C[C@@H](C)[C@H](OC)CN(C)C(=O)c2cc(NC(=O)Nc3ccccc3OC)ccc2OC[C@H]1C` the cytotoxicity call was “inactive”. `O=C(Nc1cc(Cl)ccc1Cl)c1cc(Br)ccc1NS(=O)(=O)c1ccc(Cl)c([N+](=O)[O-])c1` was tested, and the cytotoxicity call was “inactive”. For `C[C@@H]1CN([C@@H](C)CO)C(=O)c2cc(NS(=O)(=O)c3cn(C)cn3)ccc2O[C@@H]1CN(C)CC1CCCCC1`, the cytotoxicity call was “inactive”. `C[C@H]1CN([C@@H](C)CO)C(=O)c2cccc(NS(C)(=O)=O)c2O[C@H]1CN(C)C(=O)NC1CCCCC1` was tested, and the cytotoxicity call was “inactive”. `COCCN[C@H]1CS(=O)(=O)C[C@@H]1O` was tested, and the cytotoxicity call was “inactive”. `C=CCOC(=O)[C@H]1[C@@H]2C(=O)O[C@@H](c3ccccc3)[C@@H](c3ccccc3)N2[C@@H](c2ccc(OCCOC(=O)[C@@H]3C[C@@H]4C(=O)N[C@@H](Cc5ccccc5)C(=O)N4[C@@H]3c3ccc(O)cc3)cc2)[C@]12C(=O)Nc1ccccc12` was tested, and the cytotoxicity call was “inactive”. `C[C@@H]1CN([C@@H](C)CO)C(=O)c2cc(NS(=O)(=O)c3cccs3)ccc2O[C@@H]1CN(C)Cc1ccc(Cl)c(Cl)c1` was tested, and the cytotoxicity call was “inactive”. For `COc1ccc(CN(C)C[C@H]2OCCCC[C@@H](C)Oc3ccc(NC(=O)Nc4ccc5c(c4)OCO5)cc3C(=O)N([C@@H](C)CO)C[C@@H]2C)cc1`, the cytotoxicity call was “inactive”. With `COCC(=O)Nc1ccc2c(c1)C(=O)N(C)C[C@H](OC)[C@@H](C)CN(Cc1ccccc1F)[C@H](C)CO2` the cytotoxicity call was “inactive”. In the case of `CN1CCN(C(=O)C[C@@H]2CC[C@H](NC(=O)c3ccc4c(c3)OCO4)[C@@H](CO)O2)CC1`, the cytotoxicity call is reported as “inactive”. `CO[C@@H]1CN(C)C(=O)c2cc(NS(C)(=O)=O)ccc2OC[C@H](C)N(C(=O)C2CCOCC2)C[C@H]1C` was tested, and the cytotoxicity call was “inactive”. For `C[C@@H]1CN([C@H](C)CO)C(=O)CCCn2nncc2CO[C@H]1CN(C)S(=O)(=O)c1ccc(Oc2ccccc2)cc1`, the cytotoxicity call was “inactive”. In the case of `C[C@]12CC3CC(N)(C1)C[C@@](C)(C3)C2`, the cytotoxicity call is reported as “inactive”. With `Cc1noc(C)c1NC(=O)Nc1ccc2c(c1)C(=O)N([C@@H](C)CO)C[C@H](C)[C@@H](CN(C)C(=O)Nc1cccc3ccccc13)OCCCC[C@@H](C)O2` the cytotoxicity call was “inactive”. In the case of `O=C1CCC(=O)N1Nc1ccccn1`, the cytotoxicity call is reported as “inactive”. For `COc1ccc(-c2c(C)oc3ccc(Cl)cc23)cc1`, the cytotoxicity call was “inactive”. In the case of `COc1ccc(S(=O)(=O)Nc2ccc3c(c2)C(=O)N([C@@H](C)CO)C[C@@H](C)[C@@H](CN(C)S(=O)(=O)c2ccc(Cl)cc2)OCCCC[C@@H](C)O3)cc1`, the cytotoxicity call is reported as “inactive”. With `O=C(C[C@@H]1C=C[C@@H](NC(=O)c2ccc3c(c2)OCO3)[C@@H](CO)O1)NCc1ccc(Oc2ccccc2)cc1` the cytotoxicity call was “inactive”. `O=P(O)(O)C(Sc1ccc(Cl)cc1)P(=O)(O)O` was tested, and the cytotoxicity call was “inactive”. For `C[C@@H]1CN([C@@H](C)CO)C(=O)Cc2cc(NS(=O)(=O)c3ccc(Cl)cc3)ccc2O[C@@H]1CN(C)S(=O)(=O)c1cn(C)cn1`, the cytotoxicity call was “inactive”. In the case of `C[C@H](CO)N1C[C@H](C)[C@@H](CN(C)Cc2ccc3c(c2)OCO3)OCCCC[C@H](C)Oc2ccc(NS(=O)(=O)c3ccc(Cl)cc3)cc2C1=O`, the cytotoxicity call is reported as “inactive”. With `CN1CCN(C(=O)C[C@H]2CC[C@@H]3[C@H](COC[C@@H](O)CN3C(=O)C3CCOCC3)O2)CC1` the cytotoxicity call was “inactive”. `C[C@H](CO)N1C[C@H](C)[C@@H](CN(C)Cc2ccc(C(F)(F)F)cc2)OCCCC[C@H](C)Oc2ccc(N(C)C)cc2C1=O` was tested, and the cytotoxicity call was “inactive”. In the case of `OC[C@@H](O)[C@@H](O[C@@H]1O[C@H](CO)[C@@H](O)[C@H](O)[C@H]1O)[C@H](O)[C@@H](O)CO`, the cytotoxicity call is reported as “inactive”. `Cc1noc(C)c1S(=O)(=O)Nc1ccc2c(c1)CC(=O)N([C@@H](C)CO)C[C@@H](C)[C@@H](CN(C)Cc1ccc(-c3ccccc3)cc1)O2` was tested, and the cytotoxicity call was “inactive”. For `C[C@@H]1CN([C@H](C)CO)C(=O)c2cc(N(C)C)ccc2O[C@@H](C)CCCCO[C@H]1CN(C)C(=O)Nc1cccc2ccccc12`, the cytotoxicity call was “inactive”. For `C[C@H]1CCCCO[C@H](CN(C)Cc2ccc(C(F)(F)F)cc2)[C@@H](C)CN([C@@H](C)CO)C(=O)c2cc(NS(=O)(=O)c3ccc(F)cc3)ccc2O1`, the cytotoxicity call was “inactive”. `O=C(c1ccccc1Cl)n1c2ccccc2c2ccccc21` was tested, and the cytotoxicity call was “inactive”. In the case of `Cc1noc(C)c1NC(=O)Nc1ccc2c(c1)C(=O)N([C@H](C)CO)C[C@H](C)[C@@H](CN(C)C(=O)Nc1ccc(C(F)(F)F)cc1)OCCCC[C@H](C)O2`, the cytotoxicity call is reported as “inactive”. For `CCN(CC)c1ccc2c(-c3ccc(S(=O)(=O)O)cc3S(=O)(=O)O)c3ccc(N(CC)CC)cc3[o+]c2c1`, the cytotoxicity call was “inactive”. In the case of `CC(C)NC(=O)Nc1ccc2c(c1)CC(=O)N([C@H](C)CO)C[C@@H](C)[C@H](CN(C)S(=O)(=O)c1cn(C)cn1)O2`, the cytotoxicity call is reported as “inactive”. In the case of `O=C(C[C@@H]1CC[C@@H]2[C@H](COC[C@@H](O)CN2C(=O)c2cnccn2)O1)NCc1ccc(Oc2ccccc2)cc1`, the cytotoxicity call is reported as “inactive”.
